Out of some 39,000 compounds screened, about 220 (0.56%) showed activity. The list shows a part of the results.
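Also: static incubation at 37 °C against the wild-type strain, values averaged over two biological replicates.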

The assay concerns Escherichia coli K-12 BW25113. In words: relative growth (OD600 normalised to plate interquartile mean) (fraction); higher = less growth inhibition, active = 0.2 or less. Particulars: 50 µM; LB; incubation time: overnight (16-24 h).
`C[C@@H]1CN([C@@H](C)CO)C(=O)c2c(c3ccccc3n2C)-c2ccccc2CO[C@H]1CN(C)C(=O)c1ccc(F)cc1`: the relative growth is inactive: 1.02.
Next, `C[C@H](CO)N1C[C@H](C)[C@@H](CN(C)Cc2ccccc2)OCCCC[C@H](C)Oc2ccc(NC(=O)NC3CCCCC3)cc2C1=O`: inactive: 0.991; `CC(=N)NCCSCC[C@H](N)C(=O)O`: inactive: 0.997; `COc1ccc(S(=O)(=O)Nc2ccc3c(c2)C(=O)N([C@@H](C)CO)C[C@H](C)[C@@H](CN(C)C(=O)Nc2c(C)noc2C)OCCCC[C@@H](C)O3)cc1`: inactive: 1.
Regarding `Cc1ccc(S(=O)(=O)N(C)C[C@@H]2Oc3ccc(NS(C)(=O)=O)cc3C(=O)N([C@H](C)CO)C[C@@H]2C)cc1`, the relative growth is inactive: 1.03.
With `C[C@H](CO)N1C[C@H](C)[C@H](CN(C)C(=O)c2cccnc2)Oc2cc(-c3cccc(C#N)c3)ccc2S1(=O)=O`, the relative growth is inactive: 1.01.
Next, `NC1(Cc2ccc(Cl)cc2)CCN(c2ncnc3[nH]ccc23)CC1`: inactive: 0.933; `NC[C@H]1CCCN(C(=O)Nc2ccc(Oc3ccccc3)cc2)C1`: inactive: 1.03; `C[C@@H]1CCCCO[C@H](CN(C)Cc2ccc(C(F)(F)F)cc2)[C@@H](C)CN([C@H](C)CO)C(=O)c2cc(NS(=O)(=O)c3cn(C)cn3)ccc2O1`: inactive: 1.01.
For `COCC(=O)N1C[C@H](C)[C@H](OC)CN(C)C(=O)c2cc(NC(=O)c3ccc(OC)cc3)ccc2OC[C@@H]1C`, the relative growth was inactive: 0.997.
Turning to `C[C@@H]1CN([C@@H](C)CO)C(=O)c2cc(NC(=O)Nc3ccc(C(F)(F)F)cc3)ccc2O[C@@H](C)CCCCO[C@H]1CN(C)Cc1ccc(C(F)(F)F)cc1`, the relative growth was inactive: 1.01.
Next, `O=S(=O)(c1cccc(OC(F)F)c1)N1[C@@H]2CC[C@@H](C2)[C@H]1c1nc2cccc(OCc3ccccc3)c2[nH]1`: inactive: 0.981; `C[C@H](CO)N1C[C@H](C)[C@H](CN(C)Cc2ccccc2)Oc2ccc(NC(=O)CCN3CCOCC3)cc2C1=O`: inactive: 1.01; `Cc1noc(C)c1NC(=O)Nc1ccc2c(c1)C(=O)N([C@@H](C)CO)C[C@H](C)[C@@H](CN(C)S(=O)(=O)c1cn(C)cn1)O2`: inactive: 1.01.
For `C[C@@H]1CCCCO[C@@H](CN(C)Cc2ccc(C(F)(F)F)cc2)[C@H](C)CN([C@H](C)CO)C(=O)c2cc(NC(=O)C3CCCCC3)ccc2O1`, the relative growth is inactive: 1.03.
Regarding `C[C@@H]1CN([C@H](C)CO)C(=O)c2cc(NC(=O)Nc3cccc4ccccc34)ccc2O[C@H]1CN(C)C(=O)Nc1cccc2ccccc12`, the relative growth is inactive: 0.988.
Take `Cc1ccc(S(=O)(=O)N(C)C[C@@H]2Oc3ccc(NS(=O)(=O)c4cn(C)cn4)cc3CC(=O)N([C@H](C)CO)C[C@@H]2C)cc1`: the relative growth was inactive: 1.03.
Next, `Cc1noc(C)c1S(=O)(=O)N(C)C[C@H]1OCCCC[C@@H](C)Oc2ccc(NS(C)(=O)=O)cc2C(=O)N([C@@H](C)CO)C[C@H]1C`: inactive: 1.
On to `Cc1noc(C)c1NC(=O)Nc1ccc2c(c1)C(=O)N([C@H](C)CO)C[C@H](C)[C@H](CN(C)S(=O)(=O)c1ccccc1)OCCCC[C@H](C)O2`, for which the relative growth was inactive: 0.973.
Regarding `C[C@@H]1CCCCO[C@@H](CN(C)Cc2ccc(Cl)c(Cl)c2)[C@@H](C)CN([C@@H](C)CO)C(=O)c2cc(NS(=O)(=O)c3cccs3)ccc2O1`, the relative growth was inactive: 1.04.
As to `O=C1c2ccccc2[C@](Cc2ccccc2I)(C(=O)O)[C@H](c2ccc(CO)cc2)N1C1CCCCC1`, the relative growth is inactive: 1.02.
With `Cc1noc(C)c1NC(=O)Nc1ccc2c(c1)C(=O)N([C@@H](C)CO)C[C@@H](C)[C@H](CN(C)S(=O)(=O)c1ccc(F)cc1)OCCCC[C@H](C)O2`, the relative growth was inactive: 1.03.
On to `O=C(C[C@@H]1CC[C@@H]2[C@H](COC[C@H](O)CN2S(=O)(=O)c2ccc(Cl)cc2)O1)N[C@@H]1CCN(Cc2ccccc2)C1`, for which the relative growth was inactive: 0.985.
As for `CCCN(C)C[C@@H]1OCCCC[C@@H](C)Oc2ccc(NC(=O)Cc3ccccc3)cc2C(=O)N([C@H](C)CO)C[C@@H]1C`, the figure is inactive: 0.977; as for `C[C@H](CO)N1C[C@H](C)[C@@H](CN(C)C(=O)CN(C)C)Oc2ncc(-c3ccc(C(=O)N(C)C)cc3)cc2C1=O`, inactive: 0.975; as for `C=CCC[C@H](Cc1ccc(F)cc1)C(=O)O[C@H](CNC(=O)[C@@H](CC=C)CC(=O)N[C@H](CO)Cc1ccccc1)c1ccccc1`, inactive: 0.993.
With `N#C/C(=N\O)C(=O)c1ccco1`, the relative growth is inactive: 1.
With `C[C@H](CO)N1C[C@H](C)[C@@H](CN(C)C(=O)c2cnccn2)Oc2cc(C3=CCCC3)ccc2S1(=O)=O`, the relative growth was inactive: 0.99.
Turning to `C[C@@H]1CN([C@H](C)CO)C(=O)c2cc(NS(=O)(=O)c3cccs3)ccc2O[C@H]1CN(C)CC1CC1`, the relative growth is inactive: 0.986.
`CCN(CC)CCCC(C)Nc1c2ccc(Cl)cc2nc2ccc(OC)cc12.Cl.Cl` (configuration not stated): the relative growth is inactive: 1.18.
As for `CO[C@H]1CN(C)C(=O)c2ccc(NC(=O)C3CCOCC3)cc2OC[C@@H](C)N(Cc2cccnc2)C[C@H]1C`, the figure is inactive: 1.02; as for `Cc1noc(C)c1NC(=O)Nc1ccc2c(c1)CC(=O)N([C@@H](C)CO)C[C@@H](C)[C@H](CN(C)S(=O)(=O)c1ccccc1)O2`, inactive: 0.986.
Turning to `COc1ccc(S(=O)(=O)Nc2ccc3c(c2)C(=O)N([C@@H](C)CO)C[C@@H](C)[C@@H](CN(C)Cc2ccccc2)OCCCC[C@@H](C)O3)cc1`, the relative growth is inactive: 1.04.
In the case of `C[C@H](CO)N1C[C@H](C)[C@@H](CN(C)C(=O)Nc2cccc3ccccc23)Oc2ccc(NS(=O)(=O)c3ccccc3)cc2C1=O`, the relative growth was inactive: 0.998.
`O=C(C1=C[C@H](c2coc3ccccc3c2=O)C[C@H](OCCCCO)O1)N1CCOCCOCCOCCOCC1`: the relative growth is inactive: 0.993.
As for `C[C@@H]1CN([C@@H](C)CO)C(=O)c2cc(NS(=O)(=O)c3cn(C)cn3)ccc2O[C@@H]1CN(C)S(=O)(=O)c1cccs1`, the relative growth is inactive: 1.03.
Take `C[C@H](CO)N1C[C@H](C)[C@H](CN(C)Cc2cccc(C(F)(F)F)c2)Oc2ncc(C#CCN(C)C)cc2C1=O`: the relative growth was inactive: 0.962.
